Laboratory results as given in PMC12040169 (PLOS Biology, 2025).
This is one part of the list.

System: T1, C. trachomatis L2/434/Bu expressing GFP (CTL2-GFP)
T1 construct: L2/434/Bu GFP intracellular growth in HeLa cells
Set-up: species or system HeLa; C. trachomatis total inclusion area by high-content imaging, normalised to DMSO
Conditions: total inclusion area; 28.5 h, 10 µM; inhibitor
Method in brief: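 Bulk GFP and resorufin signals were read first. Wells were then fixed, stained with Hoechst and imaged to detect GFP inclusions and host nuclei. MICs followed the previously described calculation.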

Row | SMILES | % of control remaining
1 | NS(=O)(=O)c1ccc(CCNC(=O)c2ccc(C#CC3(O)CCCCC3)cc2)cc1 [CBK263104] | 85.982
2 | CCOc1ccc(N2C(=O)CC(N3CCN(CCc4ccccn4)CC3)C2=O)cc1 (stereo not drawn) [CBK270149] | 91.3309
3 | CCCC(=O)c1ccc(S(=O)(=O)N2CCN(Cc3cccc(F)c3C)CC2)cc1 [CBK063152] | 30.5934
4 | N#Cc1c(C(F)(F)F)cc(-c2ccco2)nc1SCc1ccccn1 [CBK267450] | 108.417
5 | O=c1[nH]c(CN2CCCCCCC2)nc2ccccc12 [CBK283205] | 88.3675
6 | Cn1c(C(=O)NCc2ccccc2)cc2ccccc21 [CBK200195] | 75.4275
7 | CC1C2CCCN2CCN1Cc1cccc(Oc2ccccc2)c1 (stereo not drawn) [CBK262880] | 104.188
8 | O=C(c1cccs1)[C@H]1CCCN(C(=O)c2cc(C3CC3)n[nH]2)C1 [CBK282411] | 116.285
9 | O=[N+]([O-])c1ccc(/C=N/C23CN4CN(CN(C4)C2)C3)s1 [CBK261752] | 85.982
10 | CC(C)(C)OC(=O)N1CCC[C@@H](C(=O)c2cccnc2)C1 [CBK284284] | 63.2349
11 | CCOC(=O)Cc1nc2cc([N+](=O)[O-])ccc2oc1=O [CBK015603] | 95.408
12 | Fc1ccc2c3c([nH]c2c1)C1(CCN(CCCOCc2ccccc2)CC1)NCC3 [CBK039858] | 102.031
13 | Cc1ccc(S(=O)(=O)N2CCCN(CC(O)c3ccccc3)CC2)cc1 (stereo not drawn) [CBK297911] | 81.9337
14 | COc1ccc(-c2cnc3[nH]c(=O)n([C@H](CO)C(C)C)c3n2)c(OC)c1OC [CBK065008] | 119.408
15 | COc1cccc(-n2ccn(C(=O)CCC3CCCC3)c2=O)c1 [CBK106625] | 86.8363
16 | C=CCn1c(SCc2nnc(-c3ccccc3)o2)nnc1C(O)c1ccccc1 (stereo not drawn) [CBK267368] | 91.4685
17 | COc1ccc(C(=O)N(CCC(C)C)Cc2nc(C)c(C)n2Cc2ccccc2Cl)c(OC)c1 [CBK093441] | 112.228
18 | OCCN1CCN(c2nc(-c3cccnc3)cn3ccnc23)CC1 [CBK037887] | 101.607
19 | CN(CC(=O)Nc1ccccc1N1CCNCC1)C(=O)c1ccccc1 [CBK028287T] | 55.9171
20 | CCn1ncnc1CN(c1cccc(CO)c1)C1Cc2ccccc2C1 [CBK304173] | 36.1517

Row | SMILES | % of control remaining
21 | Cc1nc(NC(=O)c2cccc(NC(=O)C3CCCO3)c2)sc1-c1n[nH]c(=S)n1C (stereo not drawn) [CBK295341] | 58.6022
22 | Nn1cnn2c(SCC(=O)c3ccccc3)nnc12 [CBK263194] | 84.3271
23 | Cn1nccc1C(=O)NC(Cc1cccs1)c1ccccn1 (stereo not drawn) [CBK285207] | 80.309
24 | NCCN(C(=O)CCc1cc(C(F)(F)F)cc(C(F)(F)F)c1)c1ccc2c(c1)OCO2 [CBK000701T] | 54.9544
25 | CCOc1ccc(-n2c(C)cc(C(=O)NS(=O)(=O)c3ccc(C)cc3)c2C)cc1 [CBK296084] | 107.296
26 | Fc1ccc(-n2c(C3CC3)n[nH]c2=S)cc1Cl [CBK288364] | 79.9709
27 | Cc1cc2c(=O)n(CC(=O)NCc3ccccn3)cnc2s1 [CBK071900] | 53.8526
28 | Cc1cc(C)n(C2CCN(Cc3nc4ccccc4n3C)CC2)n1 [CBK281621] | 105.958
29 | Cc1cccc(-n2ncc3c(=O)n(CC(=O)Nc4ccccc4)cnc32)c1C [CBK287693] | 98.7339
30 | Cc1ccc2c(c1)cc(C)c1nn(CC(=O)NC(C)C)c(=O)n12 [CBK283874] | 96.0122
31 | Nc1ncc(-c2cccc(O)c2)nc1N1CCC(C(=O)O)CC1 [CBK063405] | 124.029
32 | CCN(CC)c1c(C)nc2ccc(C(=O)NCCN3CCNC3=O)cn12 [CBK145977] | 56.3478
33 | CCN(CC)C(=O)C1CCCN(C2CCN(C(=O)c3c4ccccc4cc4ccccc34)CC2)C1 (stereo not drawn) [CBK066966] | 92.6685
34 | Cc1ccc(C(C)NC(=O)C2CCCN(S(C)(=O)=O)C2)c(C)c1 (stereo not drawn) [CBK304349] | 70.3559
35 | N#Cc1nc(-c2ccccc2F)oc1NCCCN1CCOCC1 [CBK265881] | 95.0742
36 | O=S(=O)(c1ccccc1)c1nc(-c2ccco2)oc1NCCCn1ccnc1 [CBK267670] | 102.228
37 | CC(C)(C)OC(=O)N1CCN(c2ccnc(N)n2)CC1 [CBK003529] | 102.61
38 | COc1ccc(-c2noc(CSc3nnc(-c4c[nH]c5ccccc45)n3C)n2)cc1OC [CBK268644] | 120.843
39 | O=C(CN1C2CCC1CC(O)(c1ccco1)C2)Nc1ccccc1F (stereo not drawn) [CBK284109] | 79.4765
